# Experimental data published in the supplement of paper PMC8728848.
# This is one part of the list.
# B1: GS13455A-bfa-343-25-343 (Bacteroides fragilis) (protein)
# chain: KDEIQIVDQDTSWQMDNKYIEEDIREQLGIDPFTDLVYLGYYGNPYTQLEAINDLVNTTLVGKNELSFKVKVTKPYKEDIKVNLMKEDKLVTDFPEMAEGIPLFPSENCTFEGGVLKAGELETTVKLTLKDVEKLNNLSGYVMAIKLTMEGSHEHLAIARTRSSYFVKLNLSIRLDNIDSSNKKIEGKGFNKEISFKSDIRPDKLGSLNDGNFTANNWYTSNANNYLTIILPEKQSLKGFRLDTNTSPSGSYMLKSCRVMVETPDGNWVNHGVFDRKSMDGIAYISFKKPVECTKVRFENMMAFNGRFSVDVNEVTAFR
# Legend:
# Assay in all cases: glycan array binding signal (z-score within array); higher = stronger binding
# Settings in all cases: glycan notation: IUPAC condensed, linker removed
# [1] = target: Fuc(a1-2)[GalNAc(a1-3)]Gal(b1-3)GlcNAc(b1-6)GalNAc
# How it was run: (§1)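 From the Consortium for Functional Glycomics database, 3228 arrays were curated, keeping only those whose protein sequence was available. Binding is given as a within-array Z-score averaged across arrays sharing a protein sequence and across linkers. Negative Z-scores can be read as non-binding.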
# [2] = target: Fuc(a1-2)[GalNAc(a1-3)]Gal(b1-4)Glc
# How it was run: as §1
# [3] = target: Fuc(a1-2)[GalNAc(a1-3)]Gal(b1-4)GlcNAc
# How it was run: as §1
# [4] = target: Fuc(a1-2)[GalNAc(a1-3)]Gal(b1-4)GlcNAc(b1-2)Man
# How it was run: as §1
# [5] = target: Fuc(a1-2)[GalNAc(a1-3)]Gal(b1-4)GlcNAc(b1-2)Man(a1-3)[Fuc(a1-2)[GalNAc(a1-3)]Gal(b1-4)GlcNAc(b1-2)Man(a1-6)]Man(b1-4)GlcNAc(b1-4)GlcNAc
# How it was run: as §1
# [6] = target: Fuc(a1-2)[GalNAc(a1-3)]Gal(b1-4)GlcNAc(b1-2)Man(a1-3)[Fuc(a1-2)[GalNAc(a1-3)]Gal(b1-4)GlcNAc(b1-2)Man(a1-6)]Man(b1-4)GlcNAc(b1-4)[Fuc(a1-6)]GlcNAc
# How it was run: as §1
# [7] = target: Fuc(a1-2)[GalNAc(a1-3)]Gal(b1-4)GlcNAc(b1-3)Gal(b1-4)GlcNAc
# How it was run: as §1
# [8] = target: Fuc(a1-2)[GalNAc(a1-3)]Gal(b1-4)GlcNAc(b1-3)Gal(b1-4)GlcNAc(b1-3)Gal(b1-4)GlcNAc
# How it was run: as §1
# [9] = target: Fuc(a1-2)[GalNAc(a1-3)]Gal(b1-4)GlcNAc(b1-3)GalNAc
# How it was run: as §1
# [10] = target: Fuc(a1-2)[GalNAc(a1-3)]Gal(b1-4)GlcNAc(b1-3)[Fuc(a1-2)[GalNAc(a1-3)]Gal(b1-4)GlcNAc(b1-6)]GalNAc
# How it was run: as §1
# [11] = target: Fuc(a1-2)[GalNAc(a1-3)]Gal(b1-4)GlcNAc(b1-6)GalNAc
# How it was run: as §1
# [12] = target: Fuc(a1-2)[GalNAc(a1-3)]Gal(b1-4)[Fuc(a1-3)]GlcNAc
# How it was run: as §1
# [13] = target: Fuc(a1-2)[GalNAc(a1-3)]Gal(b1-4)[Fuc(a1-3)]GlcNAc(b1-3)GalNAc
# How it was run: as §1
# [14] = target: Fuc(a1-2)[GalNAc(a1-4)]Gal(b1-4)GlcNAc
# How it was run: as §1
# [15] = target: Fuc(a1-2)[GalNAc(b1-3)]Gal
# How it was run: as §1
# Fuc(a1-3)GlcNAc = target: Fuc(a1-3)GlcNAc
# How it was run: as §1
# [16] = target: Fuc(a1-3)[Gal(b1-4)]Glc6S
# How it was run: as §1
# [17] = target: Fuc(a1-3)[Gal(b1-4)]GlcNAc
# How it was run: as §1
# [18] = target: Fuc(a1-3)[Gal(b1-4)]GlcNAc(b1-2)Man
# How it was run: as §1
# [19] = target: Fuc(a1-3)[Gal(b1-4)]GlcNAc(b1-2)Man(a1-3)[Fuc(a1-3)[Gal(b1-4)]GlcNAc(b1-2)Man(a1-6)]Man(b1-4)GlcNAc(b1-4)GlcNAc
# How it was run: as §1
# [20] = target: Fuc(a1-3)[Gal(b1-4)]GlcNAc(b1-2)Man(a1-3)[Fuc(a1-3)[Gal(b1-4)]GlcNAc(b1-2)Man(a1-6)]Man(b1-4)GlcNAc(b1-4)[Fuc(a1-6)]GlcNAc
# How it was run: as §1
# [21] = target: Fuc(a1-3)[Gal(b1-4)]GlcNAc(b1-3)Gal(b1-3)[Fuc(a1-4)]GlcNAc
# How it was run: as §1
# [22] = target: Fuc(a1-3)[Gal(b1-4)]GlcNAc(b1-3)Gal(b1-4)[Fuc(a1-3)]GlcNAc
# How it was run: as §1
# [23] = target: Fuc(a1-3)[Gal(b1-4)]GlcNAc(b1-3)Gal(b1-4)[Fuc(a1-3)]GlcNAc(b1-3)Gal(b1-4)[Fuc(a1-3)]GlcNAc
# How it was run: as §1
# [24] = target: Fuc(a1-3)[Gal(b1-4)]GlcNAc(b1-3)GalNAc
# How it was run: as §1
# [25] = target: Fuc(a1-3)[Gal(b1-4)]GlcNAc(b1-6)GalNAc
# How it was run: as §1
# [26] = target: Fuc(a1-3)[Gal(b1-4)]GlcNAc(b1-6)[Gal(b1-3)GlcNAc(b1-3)]Gal(b1-4)Glc
# How it was run: as §1
# [27] = target: Fuc(a1-3)[Gal(b1-4)]GlcNAc6S
# How it was run: as §1
# [28] = target: Fuc(a1-3)[Gal3S(b1-4)]Glc
# How it was run: as §1
# [29] = target: Fuc(a1-3)[Gal3S(b1-4)]GlcNAc
# How it was run: as §1
# [30] = target: Fuc(a1-3)[Gal3S(b1-4)]GlcNAc6S
# How it was run: as §1
# [31] = target: Fuc(a1-3)[GalNAc(b1-4)]GlcNAc
# How it was run: as §1
# [32] = target: Fuc(a1-3)[GalNAc(b1-4)]GlcNAc6S
# How it was run: as §1
# Fuc(a1-4)GlcNAc = target: Fuc(a1-4)GlcNAc
# How it was run: as §1
# Fuc(b1-3)GlcNAc = target: Fuc(b1-3)GlcNAc
# How it was run: as §1
# Gal(a1-2)Gal = target: Gal(a1-2)Gal
# How it was run: as §1
# Gal(a1-3)Gal = target: Gal(a1-3)Gal
# How it was run: as §1
binder,measurement,setting,value
B1,glycan array binding signal (z-score),[1],-0.628
same,glycan array binding signal (z-score),[2],1.22
same,glycan array binding signal (z-score),[3],0.182
same,glycan array binding signal (z-score),[4],0.645
same,glycan array binding signal (z-score),[5],-0.335
same,glycan array binding signal (z-score),[6],1.46
same,glycan array binding signal (z-score),[7],-0.415
same,glycan array binding signal (z-score),[8],-0.611
same,glycan array binding signal (z-score),[9],0.248
same,glycan array binding signal (z-score),[10],-0.563
same,glycan array binding signal (z-score),[11],-0.788
same,glycan array binding signal (z-score),[12],0.105
same,glycan array binding signal (z-score),[13],-0.387
same,glycan array binding signal (z-score),[14],-0.582
same,glycan array binding signal (z-score),[15],1.09
same,glycan array binding signal (z-score),Fuc(a1-3)GlcNAc,0.11
same,glycan array binding signal (z-score),[16],-0.375
same,glycan array binding signal (z-score),[17],0.101
same,glycan array binding signal (z-score),[18],-0.516
same,glycan array binding signal (z-score),[19],-0.389
same,glycan array binding signal (z-score),[20],-0.142
same,glycan array binding signal (z-score),[21],-0.611
same,glycan array binding signal (z-score),[22],0.401
same,glycan array binding signal (z-score),[23],-0.354
same,glycan array binding signal (z-score),[24],-0.176
same,glycan array binding signal (z-score),[25],-0.529
same,glycan array binding signal (z-score),[26],0.284
same,glycan array binding signal (z-score),[27],0.127
same,glycan array binding signal (z-score),[28],-0.586
same,glycan array binding signal (z-score),[29],0.26
same,glycan array binding signal (z-score),[30],0.461
same,glycan array binding signal (z-score),[31],0.55
same,glycan array binding signal (z-score),[32],-0.628
same,glycan array binding signal (z-score),Fuc(a1-4)GlcNAc,20.2
same,glycan array binding signal (z-score),Fuc(b1-3)GlcNAc,0.123
same,glycan array binding signal (z-score),Gal(a1-2)Gal,-0.391
same,glycan array binding signal (z-score),Gal(a1-3)Gal,0.005
